Source: the supplement of paper PMC4996465
Viability of KB3-1 and Nalm-6 cells after 48 h of drug alone (CellTiter-Glo), 11 doses over about 4.5 log units. % of DMSO wells, lower = more cell loss; AC50 from the fitted curve, lower = more potent. No active / inactive call. Nalm-6 was screened in two runs. AC50 is listed only for well-fitted inhibitory curves. KB3-1 is a HeLa-derived carcinoma line, Nalm-6 a B-cell precursor leukaemia line.

What was measured:
[1] = system: Nalm-6; test: log AC50 of viability decrease (48 h) (log10 M); higher = less potent
Method: (§1)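 Eleven-dose screen of the NCATS MIPE 3 library on cells without co-treatment; CellTiter-Glo after 48 h. AC50 from the curve fit; only inhibitory curves of the better fit classes are listed.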

[2] = system: KB3-1; test: as above
Method: as §1

[3] = system: Nalm-6; test: viability (% of DMSO control); higher = more viable cells
Method: (§2)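 Eleven-dose screen of the NCATS MIPE 3 library on cells without co-treatment; CellTiter-Glo after 48 h, as % of DMSO wells.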

[4] = system: KB3-1; test: as above
Method: as §2

Row | Structure (SMILES) | log AC50 of viability decrease ([1]; run: 1) | log AC50 of viability decrease ([1]; run: 2) | log AC50 of viability decrease [2] | viability ([3]; run: 1, 0.00078 µM) [%] | viability ([3]; run: 1, 0.00234 µM) [%] | viability ([3]; run: 1, 0.00702 µM) [%] | viability ([3]; run: 1, 0.0211 µM) [%] | viability ([3]; run: 1, 0.0632 µM) [%] | viability ([3]; run: 1, 0.19 µM) [%] | viability ([3]; run: 1, 0.569 µM) [%] | viability ([3]; run: 1, 1.71 µM) [%] | viability ([3]; run: 1, 5.12 µM) [%] | viability ([3]; run: 1, 15.4 µM) [%] | viability ([3]; run: 1, 46.1 µM) [%] | viability ([3]; run: 2, 0.00078 µM) [%] | viability ([3]; run: 2, 0.00234 µM) [%] | viability ([3]; run: 2, 0.00702 µM) [%] | viability ([3]; run: 2, 0.0211 µM) [%] | viability ([3]; run: 2, 0.0632 µM) [%] | viability ([3]; run: 2, 0.19 µM) [%] | viability ([3]; run: 2, 0.569 µM) [%] | viability ([3]; run: 2, 1.71 µM) [%] | viability ([3]; run: 2, 5.12 µM) [%] | viability ([3]; run: 2, 15.4 µM) [%] | viability ([3]; run: 2, 46.1 µM) [%] | viability ([4]; 0.00078 µM) [%] | viability ([4]; 0.00234 µM) [%] | viability ([4]; 0.00702 µM) [%] | viability ([4]; 0.0211 µM) [%] | viability ([4]; 0.0632 µM) [%] | viability ([4]; 0.19 µM) [%] | viability ([4]; 0.569 µM) [%] | viability ([4]; 1.71 µM) [%] | viability ([4]; 5.12 µM) [%] | viability ([4]; 15.4 µM) [%] | viability ([4]; 46.1 µM) [%]
1 | CN1CCC(CNc2ccc3ncc(-c4cccc(OC(F)(F)F)c4)n3n2)CC1 [SGI-1776] | -4.78 | -4.68 | -4.78 | 94.8 | 106 | 113 | 104 | 107 | 104 | 94.2 | 89.9 | 83.1 | 46.6 | 2.21 | 108 | 108 | 108 | 108 | 113 | 73.7 | 103 | 95 | 90.9 | 71.2 | 2.45 | 102 | 107 | 106 | 109 | 107 | 103 | 104 | 94 | 89.5 | 46.5 | 1.63
2 | CC(C)(C)c1cnc(CSc2cnc(NC(=O)C3CCNCC3)s2)o1 [SNS-032] | -7.18 | -7.48 | -7.28 | 105 | 102 | 109 | 89.1 | 64.4 | 9.69 | 21.7 | 23.8 | 19.5 | 18 | 2.73 | 105 | 106 | 105 | 79.6 | 34.8 | 7.84 | 18.3 | 18.1 | 21.4 | 13.2 | 3.36 | 92.7 | 96.1 | 102 | 91.9 | 50.2 | 24.9 | 28.7 | 28.7 | 23.8 | 21.3 | 12.7
3 | Cc1ccc(-c2ncn(-c3ccc(Nc4nccc(-c5cccc(N6CCOCC6)c5)n4)cc3)n2)cn1 [SR-3306] | -7.63 | -7.58 | -7.63 | 130 | 122 | 116 | 76.4 | 6.77 | 3.8 | 2.54 | 2.38 | 3.42 | 3.6 | 1.1 | 103 | 106 | 113 | 80.3 | 4.79 | 2.84 | 2.07 | 1.52 | 3.28 | 1.89 | -0.0862 | 102 | 103 | 101 | 62.8 | 25 | 23.6 | 26.7 | 29.2 | 8.82 | 8.34 | 5.07
4 | CC[C@H](C1CC[C@H](C)C(O1)[C@@H](C)[C@H](O)[C@H](C)C(=O)[C@H](CC)C2O[C@@]\3(O[C@@]4(CC[C@](C)(O4)C5CC[C@](O)(CC)[C@H](C)O5)[C@H](O)\C=C3)[C@H](C)C[C@@H]2C)C(O)=O (stereo partly specified) [Salinomycin] | -7.38 | -7.38 | -4.68 | 116 | 115 | 115 | 90.7 | 47.3 | 49.7 | 31.1 | 26.3 | 59.9 | 25.6 | 4.77 | 102 | 97 | 92.2 | 80.7 | 41.7 | 30 | 16.4 | 8.54 | 38.7 | 10.4 | 2.77 | 106 | 104 | 104 | 100 | 91.6 | 90.2 | 90.3 | 85.3 | 77.8 | 56.6 | 10.5
5 | CC[C@H](CO)Nc1nc(NCc2ccccc2)c2ncn(C(C)C)c2n1 [Seliciclib] | -4.68 | -4.68 | -4.63 | 126 | 109 | 109 | 111 | 117 | 114 | 115 | 111 | 98.3 | 73.7 | 3.39 | 111 | 114 | 112 | 110 | 113 | 113 | 110 | 121 | 109 | 80.1 | 0.803 | 104 | 98.1 | 98.2 | 102 | 106 | 102 | 98.9 | 97.5 | 91.2 | 86.3 | 21.5
6 | C=C1/C(=C/C=C2\CCCC3(C)[C@@H]([C@H](C)/C=C/C=C/C(O)(CC)CC)CC[C@@H]23)C[C@@H](O)C[C@@H]1O (stereo partly specified) [Seocalcitol] | -4.73 | -4.63 | -4.68 | 106 | 109 | 110 | 110 | 108 | 103 | 115 | 113 | 101 | 74.5 | 4.14 | 98.9 | 101 | 100 | 104 | 106 | 104 | 106 | 103 | 97.8 | 85.1 | 0.597 | 115 | 117 | 118 | 119 | 125 | 119 | 111 | 113 | 110 | 95.1 | 43.3
7 | COCCn1c2c([n+](Cc3cnccn3)c1C)C(=O)c1ccccc1C2=O [Sepantronium bromide] | -8.78 |  | -8.43 | 30.8 | 17.4 | 10.3 | 10.1 | 9.98 | 10.1 | 9.82 | 9.15 | 8.52 | 7.56 | 2.14 | 25.4 | 14.7 | 6.61 | 5.6 | 5.49 | 5.45 | 5.29 | 5.15 | 4.78 | 4.61 | 1.77 | 63.2 | 41.6 | 27.7 | 12.4 | 8.84 | 6.57 | 6.59 | 6.52 | 4.96 | 4.77 | 0.959
8 | c1ccc2c(CCNc3ccc(Nc4ccncc4)cc3)c[nH]c2c1 [Serdemetan] | -5.53 | -5.73 | -4.68 | 108 | 119 | 101 | 115 | 108 | 105 | 94.1 | 72.4 | 37.6 | 15.4 | 3.54 | 92.4 | 99.1 | 96.3 | 99.3 | 102 | 101 | 93.2 | 56.4 | 12.5 | 7.07 | 3.23 | 101 | 99.2 | 103 | 101 | 105 | 106 | 107 | 99.6 | 92.6 | 83.8 | 34.6
9 | O=C(O)c1ccc2c(c1)nc(Nc1cccc(Cl)c1)c1ccncc12 [Silmitasertib] | -5.53 | -5.28 | -4.93 | 79.9 | 93 | 94.1 | 89.2 | 82.9 | 74.6 | 63.3 | 48.9 | 31 | 9.21 | 0.18 | 97.7 | 93.7 | 96.1 | 102 | 91.8 | 89.3 | 70.1 | 59.6 | 43.5 | 6.25 | -0.123 | 88.6 | 97 | 93.2 | 96.5 | 93.4 | 90.7 | 83.6 | 68 | 52.1 | 40.3 | 5.04
10 | CNC(=O)c1cc(Oc2ccc(NC(=O)Nc3ccc(Cl)c(C(F)(F)F)c3)cc2)ccn1 [Sorafenib] | -4.83 | -4.83 | -4.68 | 98.9 | 103 | 96.7 | 104 | 96.2 | 101 | 109 | 97.5 | 88.5 | 43.2 | 0.504 | 100 | 98.8 | 105 | 103 | 107 | 102 | 110 | 106 | 96 | 45.6 | 2.28 | 101 | 99.5 | 105 | 106 | 105 | 105 | 109 | 103 | 94.9 | 77.7 | 15
11 | COc1cc(N2CCC(N3CCN(C)CC3)CC2)ccc1Nc1ncc(Cl)c(Nc2ccccc2S(=O)(=O)C(C)C)n1 [TAE-684] | -5.83 |  | -5.28 | 99.7 | 98.6 | 110 | 97.7 | 99.3 | 78.3 | 64.7 | 40.7 | 37 | 22.6 | 2.38 | 5.5 | 107 | 108 | 101 | 97.7 | 95 | 76.8 | 51.7 | 43.2 | 23.6 | 2.6 | 103 | 104 | 102 | 96.5 | 91.2 | 85.6 | 66.4 | 44.7 | 46.4 | 48 | 1.66
12 | CC(C)c1ccccc1Cc1cc(C(=O)Nc2ccc(S(=O)(=O)c3ccccc3C(C)(C)C)cc2)c(O)c(O)c1O [TW-37] | -5.63 | -6.13 | -5.43 | 108 | 112 | 106 | 105 | 114 | 104 | 94.2 | 66.6 | 39.4 | 27.4 | 18.2 | 107 | 107 | 105 | 105 | 108 | 92.5 | 62.5 | 33.5 | 6.26 | 5.38 | 4.28 | 101 | 100 | 101 | 96.1 | 97.8 | 96.5 | 94.2 | 98.5 | 51.6 | 38.8 | 35.8
13 | C[N]1C=NC=C1[C@@](N)(C2=CC=C(Cl)C=C2)C3=CC=C4N(C)C(=O)\C=C(\C5=CC=CC(=C5)Cl)C4=C3 [Tipifarnib] | -5.83 | -4.93 | -4.68 | 93.9 | 106 | 86.5 | 74.8 | 76.8 | 64.3 | 47.4 | 50 | 37.9 | 33.4 | -0.561 | 107 | 102 | 95.7 | 82 | 84.1 | 79 | 69.9 | 70.6 | 53.7 | 51.1 | 0.762 | 91.5 | 99.2 | 91.9 | 86 | 78.8 | 69.9 | 70.3 | 74.3 | 63.8 | 51.9 | 0.273
